# Test results published in the supplement of paper PMC11417369.
# ± gives the standard deviation of the averaged measurements. The list shows a part of the results.
# System: PfAP2-I AP2 domain 3 (GST-tagged)
# Assay: gcPBM binding intensity (ln(normalized median fluorescence intensity)); higher = stronger DNA binding
# How it was run: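 GST-tagged P. falciparum DNA-binding domains produced in E. coli were incubated for 1 h on an Agilent 4 × 180k array of primer-extended double-stranded 36-bp intergenic genomic probes with negative controls. Binding intensity is the highest Masliner-normalised natural-log median intensity across replicate spots of either probe orientation, with bound protein detected by Alexa488 anti-GST antibody at 488 nm.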
row,Sequence,gcPBM binding intensity (ln)
1,AAATGTGATATAAGTACACACACATATGTATATATA [CACACA_site8539],7.84 ± 0.44
2,TATGTATATTATATGACACACATTTATATATATATA [CACACA_site1167],9.01 ± 0.52
3,AATAAATAAATAAATATATATATATATATATATATG [CACACA_negctrl_site899],8.41 ± 0.5
4,TTTTGTTGATTTATATCTGTAGGGTTTAATATAACA [XGTACX_negctrl_site174],7.5 ± 0.34
5,TATTTTATCTATTTGTGTACTTATATTTATGCAAAA [XGTACX_site1499],8.21 ± 0.34
6,TATATATATAATATTGCACACAAAATTAAAAGTAAA [CACACA_site7889],10.02 ± 0.071
7,ATAAATAATATATATACACACATATCTATACATATT [CACACA_site487],7.73 ± 0.4
8,AAATTATTAAAAAAAAGTACATATATATATATATAT [XGTACX_site8313],9.41 ± 0.64
9,ATAATACACGATTATTTTCCCTTTATGTAAATATAT [CACACA_negctrl_site1107],7.85 ± 0.51
10,ATCATCTATGTTATTACACACGTTATGTTATTATAA [CACACA_site5502],7.93 ± 0.57
11,TTTTTTTTTTTTTTATGTACGAAAGAAAAGCACATA [XGTACX_site8261],8.485 ± 0.078
12,TTTAGATAATTCATTACACACATGTATATTTATATA [CACACA_site7602],7.6 ± 0.51
13,TAACGAATTTAAATTTGTACATATATAAATATATAA [XGTACX_site2168],7.55 ± 0.33
14,ACTAAACTTTTATGTACACACATATAACATTAATTT [CACACA_site5276],8.18 ± 0.29
15,TACGTAAAAATAGGACGTACTTATTTAGAAACCATA [XGTACX_site2498],7.78 ± 0.23
16,TACAAAATGGGGAACACACACATATATATATATATA [CACACA_site3844],9.3 ± 0.39
17,TTGGTACCTATAGATACACACATATATACCTATATA [CACACA_site5812],7.58 ± 0.41
18,AAATATTATAGCACCACACACTTATTTTATTTATAT [CACACA_site7133],10.8 ± 0.55
19,AGAAAGAAAGAATACACACACACATATATAAATATC [CACACA_site7716],7.91 ± 0.7

row,Sequence,gcPBM binding intensity (ln)
1,ATTATCAATATGAAGGTGCATTTAAATAATATTTAC,11.3 ± 0.7
2,TATATTCTTTATAGGTGTACTTAATAAATAAAAAAT [XGTACX_site5378],8.11 ± 0.23
3,TATCTAGTTACTCCTTGTACATAATAAATGATTTTT [XGTACX_site5674],7.78 ± 0.54
4,TATATATATGTGTTTACACACAATAATGAATTAAAA [CACACA_site4659],7.92 ± 0.57
5,TATGAACATAAATTTGCACACTGGATATAATATATA [CACACA_site2155],9 ± 0.11
6,ATATATATATTTTTATGAGGCATAAGTAATATTTTT [TGCATGCA_negctrl_site317],8.74 ± 0.11
7,AACAAGAAAAAAAAAAAAAAAAAAAAAAAATATTTT [XGTACX_negctrl_site428],7.32 ± 0.57
8,TTTTTATTTTTTTAGTATACGTACTAGGTTTGTTCT [XGTACX_site645],7.84 ± 0.42
9,ATATATTTATATATATGTACTTAAAACATTTCGATG [XGTACX_site328],7.62 ± 0.22
10,AATGTAATATAAATATGTACATAATATATATAATTA [XGTACX_site4762],7.64 ± 0.41
11,ATTTGTTTATAGGCCATAAAATATTTAATTCATTTG [CACACA_negctrl_site1824],7.64 ± 0.58
12,TTTTTCATAAATATATGTACATATATTTTATATAAC [XGTACX_site3402],7.99 ± 0.51
13,AGTATTATATTTGTATGTACGTAGTAATATATAAAA [XGTACX_site528],7.86 ± 0.6
14,ATTTATATTTATGATACACACACGTATATTCACATA [CACACA_site460],7.92 ± 0.67
15,TATGAAAAAAAAAATACACACACGAGTTGTTATACA [CACACA_site3188],7.53 ± 0.58
16,AATGAAATATGGATGGGTACACATTTGATTTTATTA [XGTACX_site6155],7.61 ± 0.5
17,TGTATGTATAGAAACACACATACATATATATAATAT [CACACA_site1405],7.5 ± 0.46
18,ATATATATAAACATATGTACACATATATATAATACA [XGTACX_site1848],8.28 ± 0.4
19,TAAGAAAATATTTATGTATGCATGTCCTAATATTTC [TGCATGCA_site295],7.88 ± 0.63

row,Sequence,gcPBM binding intensity (ln)
1,AAAAAAAATTAATTAGTGCAAAATATATACAAAATA [GTGCAC_site9762],10.36 ± 0.071
2,ATATAAAATATTAGTAGTACCATTAACAGTATTGTT [XGTACX_site5912],7.75 ± 0.35
3,ATTAAGATGTATATATGTACATATTACATACATATA [XGTACX_site8657],7.61 ± 0.39
4,TGAAAATAGTTAATTTGTACACAAAAATTAAGAAAA [XGTACX_site5794],8.04 ± 0.51
5,AATTAAATAAATGTATGTACATAATAAATATGTATT [XGTACX_site4379],7.55 ± 0.41
6,TTTTATTTTATAAAAATAAAAAAAAAATTATTACAA [TGCATGCA_negctrl_site508],7.38 ± 0.39
7,TATGAAAATATATATTGTACAGAATCTATAAAAAAT [XGTACX_site8030],7.9 ± 0.44
8,AAAGAAATATATACAAAAATATGAACAATTTATTAT [XGTACX_negctrl_site78],7.41 ± 0.55
9,TTTTCGATGTTGGTAGGATGTATGGTACACGTAGTA [TGCATGCA_negctrl_site61],7.95 ± 0.67
10,GAAAATTTTTGGTGTACACAAAAAAATCCAAAAAAA [CACACA_site5042],8.67 ± 0.17
11,TATGATTGTTTACGTTGTACAGCTGAATTGTTCTTA [XGTACX_site8114],7.55 ± 0.47
12,AATAAAAGATCATTTATTCTTTTTTTTCTTTTTAAA [CACACA_negctrl_site1256],7.12 ± 0.74
13,TAAATAAATTTATACACACACACACCGATATATATA [CACACA_site4622],8.19 ± 0.63
14,GAATGCCTTGAAAATAGTACAATTAAGAAAAAATAC [XGTACX_site8002],8.09 ± 0.45
15,AAAATACATAAACGTTCACACATTTAAGATAACGAG [CACACA_site5345],7.7 ± 0.58
16,GAGTTTACACTCCCTTGTACATATTCATTTTTATTC [XGTACX_site5208],8.12 ± 0.63
17,TGAATAAATATATATACACACATATATGTATATATT [CACACA_site1642],7.38 ± 0.51
18,TATATATATAATATATGTACATATTAATTATGTATA [XGTACX_site5366],8.36 ± 0.028
